Data reported in the antibiotic and cytotoxicity screens of Wong et al. (2023).
This is one part of the list.

Assays:
HSkMC = human skeletal muscle cells; experiment: cytotoxicity call (relative viability < 0.9); settings: 10 µM
HepG2 = experiment: cytotoxicity call (relative viability < 0.9); settings: 10 µM
S. aureus RN4220 = experiment: growth inhibition call (relative growth <= 0.2); settings: 50 µM

SMILES | cytotoxicity call (HSkMC) | cytotoxicity call (HepG2) | growth inhibition call (S. aureus RN4220)
COc1cccc(S(=O)(=O)Nc2ccc3c(c2)C(=O)N(C)C[C@H](OC)[C@@H](C)CN(C(=O)Cc2cccnc2)[C@@H](C)CO3)c1 | inactive | inactive | inactive
N[C@H](C(=O)O)[C@H](O)c1ccc(O)c(O)c1 | inactive | inactive | inactive
Cc1noc(C)c1S(=O)(=O)N(C)C[C@H]1OCCCC[C@@H](C)Oc2ccc(NS(=O)(=O)c3cn(C)cn3)cc2C(=O)N([C@@H](C)CO)C[C@@H]1C | inactive | inactive | inactive
Cn1cnc(S(=O)(=O)N2C[C@@H](O)COC[C@H]3O[C@@H](CC(=O)N4CCN(c5ccccc5)CC4)CC[C@@H]32)c1 | inactive | inactive | inactive
C[C@@H]1CN([C@@H](C)CO)C(=O)c2cc(NC(=O)Nc3cccc4ccccc34)ccc2O[C@@H]1CN(C)Cc1ccc(C(F)(F)F)cc1 | inactive | active | inactive
COCc1cn(C[C@H](Cc2ccccc2)NC(=O)N[C@H](CO)CCc2oc(C(=O)N3CCOCC3)c(C(=O)OC)c2C(=O)OC)nn1 | inactive | inactive | inactive
C[C@@H]1CN([C@@H](C)CO)C(=O)c2cccc(NS(=O)(=O)c3ccc(F)cc3)c2O[C@@H]1CN(C)Cc1ccc(-c2ccccc2)cc1 | inactive | active | inactive
COC(=O)CCc1c(c/2[nH]c1/C=C/1\N=C(/C=C/3\N=C(/C=C/4\N/C(=C2)[C@]2(C)[C@H](C(=O)OC)C(=CC=C42)C(=O)OC)C(=C3C=C)C)C(=C1CCC(=O)O)C)C | active | active | inactive
C[C@@H]1CN([C@@H](C)CO)C(=O)c2cccc(NC(=O)Nc3ccc(C(F)(F)F)cc3)c2O[C@H]1CN(C)C(=O)Nc1ccc(F)cc1 | inactive | inactive | active
CC/C(=C\c1ccccc1)C(=O)O | inactive | inactive | inactive
C[C@@H]1CN([C@H](C)CO)C(=O)Cc2cc(NC(=O)C3CC3)ccc2O[C@@H]1CN(C)C(=O)Nc1ccc2c(c1)OCO2 | inactive | inactive | inactive
C[C@@H]1CN([C@H](C)CO)C(=O)Cc2cc(N(C)C)ccc2O[C@@H]1CN(C)S(=O)(=O)c1ccc(F)cc1 | inactive | inactive | inactive
C[C@@H]1CN([C@@H](C)CO)C(=O)CCCn2nncc2CO[C@@H]1CN(C)S(=O)(=O)c1ccc(-c2ccccc2)cc1 | inactive | inactive | inactive
C[C@@H]1CN([C@@H](C)CO)C(=O)c2cccc(NS(=O)(=O)c3cn(C)cn3)c2O[C@H]1CN(C)Cc1ccccc1 | inactive | inactive | inactive
C[C@@H]1CN([C@@H](C)CO)C(=O)c2cc(NC(=O)c3ccncc3)ccc2O[C@@H]1CN(C)Cc1ccc2c(c1)OCO2 | inactive | inactive | inactive
C[C@@H]1CN([C@@H](C)CO)C(=O)c2cc(C#C[C@@H](C)O)cnc2O[C@@H]1CN(C)C(=O)Nc1ccc(C(F)(F)F)cc1 | inactive | inactive | inactive
CN1CCN(C)C2(CCN(C(=O)c3ccn[nH]3)CC2)C1=O | inactive | inactive | inactive
C[C@H](CO)N1C[C@H](C)[C@@H](CN(C)Cc2ccc3c(c2)OCO3)Oc2ccc(NC(=O)c3ccncc3)cc2CC1=O | inactive | inactive | inactive
N[C@@H](CSSC[C@H](N)C(=O)O)C(=O)O | inactive | inactive | inactive
C[C@H](CO)N1C[C@H](C)[C@H](CN(C)C(=O)Nc2ccc(C(F)(F)F)cc2)OCCCC[C@H](C)Oc2ccc(NC(=O)Nc3ccccc3)cc2C1=O | inactive | inactive | inactive
Cc1ccc(S(=O)(=O)N(C)C[C@H]2Oc3ccc(NS(=O)(=O)c4c(C)noc4C)cc3CC(=O)N([C@H](C)CO)C[C@@H]2C)cc1 | inactive | inactive | inactive
CC(C)NC(=O)Nc1ccc2c(c1)C(=O)N([C@H](C)CO)C[C@H](C)[C@H](CN(C)Cc1ccc(Cl)c(Cl)c1)OCCCC[C@H](C)O2 | inactive | inactive | inactive
O=C(C[C@@H]1CC[C@@H]2NC[C@H](O)COC[C@H]2O1)NCCN1CCCCC1 | inactive | inactive | inactive
Cc1ccc(S(=O)(=O)N(C)C[C@H]2OCCCC[C@H](C)Oc3ccc(NC(=O)Cc4ccccc4)cc3C(=O)N([C@H](C)CO)C[C@@H]2C)cc1 | inactive | inactive | inactive
C[C@@H]1CCCCO[C@@H](CN(C)S(=O)(=O)c2ccc(Cl)cc2)[C@H](C)CN([C@@H](C)CO)C(=O)c2cc(NS(=O)(=O)c3cccs3)ccc2O1 | inactive | active | inactive
COc1ccc(NC(=O)N(C)C[C@H]2Oc3ncc(C#CCN(C)C)cc3C(=O)N([C@@H](C)CO)C[C@H]2C)cc1 | inactive | inactive | inactive

SMILES | cytotoxicity call (HSkMC) | cytotoxicity call (HepG2) | growth inhibition call (S. aureus RN4220)
C[C@@H]1CCCCO[C@H](CN(C)Cc2ccc3c(c2)OCO3)[C@@H](C)CN([C@H](C)CO)C(=O)c2cc(NC(=O)Nc3cccc4ccccc34)ccc2O1 | inactive | inactive | inactive
CNC[C@H]1OCCCC[C@@H](C)Oc2ccc(NS(=O)(=O)c3c(C)noc3C)cc2C(=O)N([C@H](C)CO)C[C@@H]1C | inactive | inactive | inactive
O=C(C[C@@H]1C[C@H]2c3cc(NS(=O)(=O)c4ccccc4)ccc3O[C@H]2[C@@H](CO)O1)NC1CCCCC1 | inactive | inactive | inactive
CC(=O)O[C@H]1[C@H](Oc2cc(O)cc(O)c2C(=O)c2cc(O)cc(O)c2)O[C@H](CO)[C@@H](OC(=O)c2ccccc2)[C@@H]1O | inactive | inactive | inactive
COc1ccc(NC(=O)Nc2ccc3c(c2)CC(=O)N([C@H](C)CO)C[C@H](C)[C@H](CN(C)Cc2ccc(Oc4ccccc4)cc2)O3)cc1 | inactive | active | inactive
C[C@H]1CN([C@@H](C)CO)C(=O)c2cc(NC(=O)Nc3cccc4ccccc34)ccc2O[C@@H]1CN(C)C(=O)Nc1ccc2c(c1)OCO2 | inactive | inactive | inactive
C[C@@H]1CN([C@H](C)CO)C(=O)Cc2cc(NS(=O)(=O)c3ccc(Cl)cc3)ccc2O[C@H]1CN(C)C | inactive | inactive | inactive
CC(=O)NCc1nccc(N2CCCC2)n1 | inactive | inactive | inactive
Cc1ccc(S(=O)(=O)N(C)C[C@H]2Oc3c(NC(=O)C4CC4)cccc3C(=O)N([C@@H](C)CO)C[C@H]2C)cc1 | inactive | inactive | inactive
C[C@@H]1CN([C@H](C)CO)C(=O)c2cc(NS(=O)(=O)c3ccc(Cl)cc3)ccc2O[C@H]1CN(C)C(=O)Nc1ccc(C(F)(F)F)cc1 | inactive | inactive | inactive
Cc1ccc(S[C@]2(C(=O)NC3CC3)CC(=O)N(Cc3ccccc3Cl)[C@@H]2c2ccc(CO)cc2)cc1 | inactive | inactive | inactive
C[C@@H]1CCCCO[C@H](CN(C)C(=O)CCC(F)(F)F)[C@@H](C)CN([C@H](C)CO)C(=O)c2cc(NC(=O)C3CCCCC3)ccc2O1 | inactive | inactive | inactive
C[C@H]1CN([C@@H](C)CO)C(=O)Cc2cc(NC(=O)Nc3ccccc3)ccc2O[C@H]1CN(C)S(C)(=O)=O | inactive | inactive | inactive
C[C@@H]1CN([C@H](C)CO)C(=O)c2cc(NC(=O)C3CCCCC3)ccc2O[C@@H](C)CCCCO[C@@H]1CN(C)S(=O)(=O)c1ccccc1 | inactive | inactive | inactive
C[C@@H]1CCCCO[C@@H](CN(C)Cc2ccc(C(F)(F)F)cc2)[C@@H](C)CN([C@@H](C)CO)C(=O)c2cc(NC(=O)Nc3ccc(C(F)(F)F)cc3)ccc2O1 | active | inactive | inactive
Cc1c2oc3c(C)ccc(C(=O)N[C@@H]4C(=O)N[C@H](C(C)C)C(=O)N5CCC[C@H]5C(=O)N(C)CC(=O)N(C)[C@@H](C(C)C)C(=O)O[C@@H]4C)c3nc-2c(C(=O)N[C@@H]2C(=O)N[C@H](C(C)C)C(=O)N3CCC[C@H]3C(=O)N(C)CC(=O)N(C)[C@@H](C(C)C)C(=O)O[C@@H]2C)c(N)c1=O | active | active | inactive
COc1ccccc1-c1ccc2c(c1)O[C@H](CN(C)S(=O)(=O)c1ccccc1)[C@@H](C)CN([C@@H](C)CO)S2(=O)=O | inactive | inactive | inactive
O=c1oc2cc(O)ccc2s1 | inactive | inactive | inactive
O=C(C[C@H]1C[C@H]2c3cc(NC(=O)Cc4ccncc4)ccc3O[C@H]2[C@H](CO)O1)NCc1ccc2c(c1)OCO2 | inactive | inactive | inactive
CO[C@@H]1CN(C)C(=O)c2ccc(NS(C)(=O)=O)cc2OC[C@H](C)N(C(=O)C2CCOCC2)C[C@H]1C | inactive | inactive | inactive
C[C@@H]1CN([C@H](C)CO)C(=O)c2cc(NS(=O)(=O)c3ccc(Cl)cc3)ccc2O[C@@H](C)CCCCO[C@@H]1CN(C)S(=O)(=O)c1ccccc1 | inactive | inactive | inactive
Cc1ccc(S(=O)(=O)N(C)C[C@@H]2Oc3ccc(NS(=O)(=O)c4cn(C)cn4)cc3CC(=O)N([C@H](C)CO)C[C@@H]2C)cc1 | inactive | inactive | inactive
C[C@H](CO)N1C[C@H](C)[C@@H](CN(C)C(=O)Nc2ccccc2F)Oc2cc(C#CCN(C)C)ccc2S1(=O)=O | inactive | inactive | inactive
C[C@@H]1CCCCO[C@@H](CN(C)Cc2ccc(Cl)c(Cl)c2)[C@H](C)CN([C@@H](C)CO)C(=O)c2cc(NC(=O)c3ccccc3)ccc2O1 | active | active | inactive
C[C@@H]1CCCCO[C@H](CN(C)Cc2ccc(C(F)(F)F)cc2)[C@@H](C)CN([C@H](C)CO)C(=O)c2cc(NC(=O)Cc3ccccc3)ccc2O1 | inactive | inactive | inactive
NNC(=O)CN1CCCc2ccccc21 | inactive | inactive | inactive
